PubChem BioAssay AID360 (National Center for Advancing Translational Sciences (NCATS), 2006)
The whole screen tested about 48,000 compounds, of which about 550 (1.1%) were called active. The shares of active, inactive and inconclusive entries below differ from those in the screen. Cut-off read from the data, not from the text of the source: active = potency below about 15 µM; inconclusive = mostly about 16 µM to 33 µM; inactive = weaker than that. Potencies of inconclusive entries are left out as doubtful fits.

The compounds below were run against Lysosomal acid glucosylceramidase (Homo sapiens) (UniProt P04062) (assay: Glucocerebrosidase). Conditions: purified enzyme, resorufin glucoside fluorescence (screen aimed at inhibitors), 20 min.
UniProt P04062, sequence (P04062 whole entry, looked up): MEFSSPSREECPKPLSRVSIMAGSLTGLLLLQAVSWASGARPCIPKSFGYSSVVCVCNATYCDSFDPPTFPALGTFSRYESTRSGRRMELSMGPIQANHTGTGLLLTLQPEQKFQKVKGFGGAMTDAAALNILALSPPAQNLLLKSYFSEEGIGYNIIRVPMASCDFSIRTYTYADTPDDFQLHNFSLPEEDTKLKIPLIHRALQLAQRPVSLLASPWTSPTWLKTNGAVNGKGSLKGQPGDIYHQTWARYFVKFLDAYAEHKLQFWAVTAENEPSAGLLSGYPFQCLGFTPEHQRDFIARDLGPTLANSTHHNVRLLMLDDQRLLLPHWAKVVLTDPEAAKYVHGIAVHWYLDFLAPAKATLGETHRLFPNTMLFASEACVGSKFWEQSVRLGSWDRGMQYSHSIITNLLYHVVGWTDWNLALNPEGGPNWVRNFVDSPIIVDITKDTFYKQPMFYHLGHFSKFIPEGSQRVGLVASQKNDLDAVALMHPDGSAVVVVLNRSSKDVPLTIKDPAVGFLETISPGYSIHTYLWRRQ
In short: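 Wild-type enzyme at 0.2 nM final in 50mM citric acid/KH2PO4, 10mM sodium taurocholate, 0.01% tween-20, pH 5.9, with resorufin beta-D-glucopyranoside at 30 uM final. Compounds titrated, 20 min at RT, red fluorescence read; AC50 from titration.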
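Note: the screen sought inhibitors.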
Potency is the fitted concentration of half-maximal effect.

Structure (SMILES)	Potency
CCOc1ccc2nc(NS(=O)(=O)c3ccc(NC(C)=O)cc3)sc2c1	inconclusive [decreasing]
O=C(NC1=NCCS1)c1cccc(NC(=O)c2ccco2)c1	inactive: > 76.9 µM
O=C(CCn1c(=O)c2sccc2n(CC(=O)OCc2ccccc2)c1=O)NCc1ccco1	inactive: > 76.9 µM
Cc1nn(CCc2nc(-c3ccco3)cs2)c2[nH]c(=O)cc(C(F)(F)F)c12	inactive: > 76.9 µM
CCN(CC)S(=O)(=O)c1ccc(S(=O)(=O)N(Cc2ccccn2)Cc2ccco2)cc1	inconclusive [decreasing]
N#Cc1c(NC(=O)c2ccc(Cn3cc(Br)cn3)o2)sc2c1CCCCCC2	inactive: > 76.9 µM
Cc1ccc(N=c2oc3cc(O)ccc3cc2C(N)=O)cc1	inconclusive [decreasing]
Clc1ccc(C2=Nn3c(nnc3-c3n[nH]c4c3CCC4)SC2)cc1Cl	inconclusive [decreasing]
COc1ccc(C(CNC(=O)c2cccnc2SC)N2CCOCC2)cc1 (configuration not stated)	active: 15 µM
CC(C)C1CC(=O)NC(SCC(=O)Nc2ccc(Br)cc2)=C1C#N (configuration not stated)	inconclusive [decreasing]
CCn1nccc1C(=O)Nc1cc(Cl)ccc1Cl	inconclusive [decreasing]
CC(NS(=O)(=O)c1ccc(F)cc1)C(c1cccs1)N1CCN(C)CC1 (configuration not stated)	inconclusive [decreasing]
Oc1c(CN2CCOCC2)cc(COCc2ccccc2)c2cccnc12	inconclusive [decreasing]
COc1ccc(CCn2c(-c3ccco3)nc3nc4ccccc4nc32)cc1	inactive: > 76.9 µM
CC(=O)c1ccc(NS(=O)(=O)c2cccc(C)c2)cc1	inconclusive [decreasing]
COc1ccc(-c2cc(C(=O)Nc3ccccc3SC)no2)cc1OC	inactive: > 76.9 µM
O=C(COC(=O)Cc1ccc(S(=O)(=O)N2CCCCC2)s1)Nc1ccc2c(c1)OCO2	inconclusive [decreasing]
CCOCCCn1c(=N)c(C(=O)Nc2cc(C)on2)cc2c(=O)n3ccccc3nc21	inactive: > 76.9 µM
Cc1ccc(C)n1CCN1CCN(C(=O)CSc2nc3ccccc3nc2N2CCOCC2)CC1	inconclusive [decreasing]
O=C(CSc1nc2scc(-c3ccco3)c2c(=O)n1-c1ccccc1)N1CCOCC1	inconclusive [decreasing]
COc1ccc(OC)c(Nc2nc(N)nc(-c3cc4ccccc4o3)n2)c1	inconclusive [increasing]
COc1ccc(CCNC(=O)c2c(O)c3cccc4c3n(c2=O)CC4)cc1	inactive: > 76.9 µM
COc1cc2c(cc1NC(=O)c1ccc3c(c1)OCO3)oc1ccccc12	inconclusive [increasing]
CCc1ccc(NC(=O)C2CCN(S(C)(=O)=O)CC2)cc1	inconclusive [decreasing]
Cc1onc(-c2ccccc2Cl)c1C(=O)Nc1cccc(-c2cn3cccnc3n2)c1	active: 11.4 µM
O=C(Nc1ccc2c(c1)OCO2)C(c1ccc(Cl)cc1)N1CCC2(CC1)OCCO2 (configuration not stated)	inconclusive [decreasing]

Structure (SMILES)	Potency
O=C(CSc1nnc(-c2ccc(Cl)cc2)n1Cc1ccco1)c1cccs1	inconclusive [decreasing]
CCSC1=C(C#N)C2(CCCC2)C(C#N)=C(N)N1	inconclusive [decreasing]
CCOc1ccc(NC(=O)N(CCN2CCOCC2)Cc2ccc3c(c2)CCCN3CC)cc1	inconclusive [decreasing]
COc1ccc(OC)c(-c2cc(C(=O)N3CCCc4ccccc43)no2)c1	inactive: > 76.9 µM
O=C(Nc1nc(-c2cccs2)cs1)c1cccc(S(=O)(=O)N2CCCCC2)c1	inactive
CCOC(=O)c1cc2c(ccn2C)n1CC(=O)N1CCN(c2ccccc2)CC1	inactive: > 76.9 µM
O=C(Nc1cccc(S(=O)(=O)c2cccc(NC(=O)C3CC3)c2)c1)C1CC1	inconclusive [decreasing]
Cc1ccc(C)c(NS(=O)(=O)c2cc(Br)cnc2N)c1	active: 15.2 µM
Cc1ccc(C)c(N2CC(=O)N(c3cc(C)ccc3C)CC2=O)c1	inactive: > 76.9 µM
O=C(CCN1CCN(c2ccccc2F)CC1)Nc1ccccc1F	inactive: > 76.9 µM
CCc1ccccc1NS(=O)(=O)c1ccc2[nH]cc(C(=O)NCC3CCCO3)c(=O)c2c1 (configuration not stated)	inconclusive [decreasing]
C=CCn1c(SCC(=O)Nc2ccc3c(c2)CCC3)nnc1-c1cccs1	inactive: > 76.9 µM
NC1C2CN(c3nc4c(cc3F)c(=O)c(C(=O)O)cn4-c3ccc(F)cc3F)CC12 (configuration not stated)	inactive
Clc1ccc(Cn2ncc3c(N4CCCCC4)ncnc32)c(Cl)c1	active: 11 µM
CN1CCN(C(=O)c2ccccc2-c2nc(-c3ccc(Cl)cc3)no2)CC1	inconclusive [decreasing]
Cc1ccc(O)c(-c2cc(C(=O)Nc3ccc(S(=O)(=O)N4CC(C)OC(C)C4)cc3)[nH]n2)c1 (configuration not stated)	inconclusive [decreasing]
COc1ccc(N2CCN(C(=O)c3ccc(NS(=O)(=O)c4ccc(F)c(F)c4)cc3)CC2)cc1	inconclusive [decreasing]
O=C(NC(=O)c1ccccc1)NC1(C(F)(F)F)OCCO1	inconclusive [decreasing]
Cc1nc2cncc(Br)c2n1C	inactive: > 76.9 µM
CCS(=O)(=O)N1CCN(C2CCC(c3ccccc3)CC2)CC1 (configuration not stated)	inconclusive [decreasing]
COc1ccc(OC)c(NC(=O)[C@H]2CC=CC[C@H]2C(=O)O)c1	inconclusive [decreasing]
O=C(CSc1nnc(-c2ccco2)n1Cc1ccccc1)OC1CCCCC1	inactive: > 76.9 µM
COc1ccc2nc(N3CCCC3)[nH]c2c1	inconclusive [decreasing]
CCCCn1ccnc1C(=O)c1cccc(S(=O)(=O)N2c3ccccc3CC2C)c1 (configuration not stated)	inconclusive [decreasing]
COc1ccc(S(=O)(=O)NC2CC3CCC2C3)cc1Cl (configuration not stated)	inconclusive [decreasing]
Cc1cccc(-n2c(N)cc(=O)nc2SC(C)C(=O)NC2CCCCC2)c1 (configuration not stated)	inactive: > 76.9 µM

Structure (SMILES)	Potency
C=CCn1c(SCc2nc3ccccc3[nH]2)nnc1-c1ccncc1	inactive: > 76.9 µM
O=C(Nc1ccccc1C(F)(F)F)c1cc(-c2ccc(O)cc2)on1	active: 13.4 µM
CCn1c(C)nc2cc(S(=O)(=O)C(F)(F)C(F)C(F)(F)F)ccc21 (configuration not stated)	inconclusive [decreasing]
C=CCSc1n[nH]c(-c2ccc(OCCC)cc2)n1	inconclusive [increasing]
CCc1nnc(NC(=O)c2cccc(S(=O)(=O)N3CCN(c4ccccc4)CC3)c2)s1	active: 9.83 µM
O=C(O)c1cccc(OCc2ccccc2Cl)c1	inactive: > 76.9 µM
Cc1cc2ccccc2c(=O)n1CC(=O)NC1CCCCCC1	inactive: > 76.9 µM
O=C(c1ccco1)N1CCN(c2nc(C3CC3)nc3sc4c(c23)CCCC4)CC1	inconclusive [decreasing]
COc1ccc(N=c2oc3c(OC)cccc3cc2C(=O)NCc2ccco2)c(OC)c1	active: 2.1 µM
O=C(CN1CCC(n2nnc3cc(F)ccc32)CC1)NCCc1nc2ccccc2[nH]1	inconclusive [decreasing]
CC1CCCCN1S(=O)(=O)c1ccc(NC(=O)c2cccc(-n3cnnn3)c2)cc1 (configuration not stated)	inconclusive [decreasing]
COc1ccc(OC)c(-c2cc(C(=O)NCc3ccco3)no2)c1	inconclusive [increasing]
CN(C)/C=N/c1nc2ccc3c(c2s1)CCCC3	inactive: > 76.9 µM
O=C1C(Cl)=C(Nc2ccccc2O)C(=O)N1c1ccccc1	inconclusive [decreasing]
O=C(CS(=O)(=O)c1c[nH]c2ccccc12)Nc1ccc2c(c1)OCCO2	inconclusive [decreasing]
Cc1cccc2cc(C(c3nnnn3C(C)(C)C)N3CCN(C(=O)c4ccco4)CC3)c(=O)[nH]c12 (configuration not stated)	inactive: > 76.9 µM
CC(C)CC(=O)Nc1ccc(C(=O)COc2ccc(-c3nnco3)cc2)cc1	inconclusive [decreasing]
Cc1ccc(S(=O)(=O)N2CCN(c3nc4ccccc4nc3-n3nc(C)cc3C)CC2)cc1	inactive: > 76.9 µM
N=c1oc2c3c4c(cc2cc1C(=O)Nc1ccccc1)CCCN4CCC3	inconclusive [increasing]
CC(=O)NC1(c2nnnn2CCOC(=O)Nc2ccc(Cl)cc2)CCCCC1	inconclusive [decreasing]
COc1ccc(-c2ccc(-c3noc(-c4cccc(OC)c4)n3)c(OC)n2)cc1	active: 5.99 µM
COc1ccccc1CNc1nc2nc(C)c(Cl)c(=O)n2[nH]1	inconclusive [decreasing]
CCC(C(=O)OC)n1cnc2c(cnn2-c2ccc(Cl)cc2)c1=O (configuration not stated)	inconclusive [increasing]
Cc1sc2nc(CN(Cc3cccs3)C(=O)C3CC3)[nH]c(=O)c2c1C	inactive: > 76.9 µM
CCc1cc2c(SCC(=O)c3cccs3)ncnc2s1	inconclusive [increasing]
